Reference: PubChem BioAssay (NCATS)
This list was built around the results that the source calls inconclusive (neither active nor inactive); the mix of calls is not that of the screen. For some of these results: Potencies beside an inconclusive call are fits to weak or partial responses and may not hold up. The source made the active and inactive calls. The call rests on the fitted dose curve; in most records, active means well fitted curve in the direction sought with a large enough effect; inconclusive means small, poorly fitted or top-dose-only effect, or another doubt; inactive means no such curve, though single readings can be large; an effect the other way counts as inactive or inconclusive.

Tests used:
[1] = NS1 protein of Zika virus - qHTS assay to identify small molecule inhibitors in human HEK 293 cells (AID 1347053); further: nearly all actives have a fitted effect of over 55% in size
Outline: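 Read-out is a two-antibody TR-FRET for ZIKV NS1, normalized between uninfected cells and infected cells. Compound added 1 h before MR766 infection at MOI 0.5; human HEK 293 cells incubated 24 h, 37 C.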

[2] = qHTS of pediatric cancer cell lines to identify multiple opportunities for drug repurposing: Primary screen for SK-N-MC cells (AID 1347093); settings: SK-N-MC viability, CellTiter-Glo luminescence, 48 h; activity change, negative = cytotoxic: at 46 µM (top of the series)
Outline: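 Metabolically active cells were quantified by ATP-dependent luminescence (CellTiter-Glo, 15 min at room temperature) following 48 h treatment. Cells had been plated at 500-1,000 per well and settled for 5 h beforehand.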

[3] = qHTS of pediatric cancer cell lines to identify multiple opportunities for drug repurposing: Primary screen for BT-37 cells (AID 1347094)
Outline: (§1)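 Readout: CellTiter-Glo luminescence, 48 h treatment. Controls DMSO (neutral) and bortezomib 2.3 µM final (positive). Potency and efficacy taken from primary-screen concentration-response curves.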

[4] = qHTS of pediatric cancer cell lines to identify multiple opportunities for drug repurposing: Primary screen for U-2 OS cells (AID 1347096); further: nearly all actives have a fitted effect of over 50% in size
Outline: (§2)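 Viability after 48 h compound treatment at 37C, 500-1,000 cells/well, read as ATP luminescence with CellTiter-Glo. Primary screens used 11-point (MIPE, 0.78 nM-46 µM) or 8-point (NPC, 0.59 nM-46 µM) final concentrations; follow-up screens used 11-point dilutions.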

[5] = qHTS of pediatric cancer cell lines to identify multiple opportunities for drug repurposing: Primary screen for SK-N-SH cells (AID 1347098); further: nearly all actives have a fitted effect of over 65% in size
Outline: (§3)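 Cells (500-1,000/well) rested 5 h, then received compounds for 48 h; metabolically active cells were measured by CellTiter-Glo luminescence. Final concentrations spanned up to 46 µM (MIPE, 11-point) or 0.59 nM-46 µM (NPC, 8-point) in primary screens, 11-point in follow-ups.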

[6] = qHTS of pediatric cancer cell lines to identify multiple opportunities for drug repurposing: Primary screen for BT-12 cells (AID 1347101); further: nearly all actives have a fitted effect of over 25% in size
Outline: as §3

[7] = qHTS of pediatric cancer cell lines to identify multiple opportunities for drug repurposing: Primary screen for RD cells (AID 1347104); settings: RD rhabdomyosarcoma viability, CellTiter-Glo luminescence, 48 h; activity change, negative = cytotoxic: at 46 µM (top of the series); further: nearly all actives have a fitted effect of over 55% in size
Outline: as §1

[8] = qHTS of pediatric cancer cell lines to identify multiple opportunities for drug repurposing: Primary screen for control Hh wild type fibroblast cells (AID 1347106); further: nearly all actives have a fitted effect of over 55% in size
Outline: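 Cells (500-1,000/well) in growth media were settled 5 h at 37 degrees C, then given compounds for 48 h. Viability was read as CellTiter-Glo luminescence. Primary runs used MIPE at 11 points (0.78 nM-46 µM) and NPC at 8 points (0.59 nM-46 µM); follow-ups used 11 points.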

[9] = qHTS of pediatric cancer cell lines to identify multiple opportunities for drug repurposing: Primary screen for Rh30 cells (AID 1347107); further: nearly all actives have a fitted effect of over 75% in size
Outline: as §2

[10] = qHTS of pediatric cancer cell lines to identify multiple opportunities for drug repurposing: Primary screen for Rh41 cells (AID 1347108); further: nearly all actives have a fitted effect of over 70% in size
Outline: as §1

[11] = qHTS of pediatric cancer cell lines to identify multiple opportunities for drug repurposing: Confirmatory screen for NB1643 cells (AID 1347109); further: nearly all actives have a fitted effect of over 45% in size
Outline: as §2

[12] = qHTS of pediatric cancer cell lines to identify multiple opportunities for drug repurposing: Confirmatory screen for BT-12 cells (AID 1347112); further: nearly all actives have a fitted effect of over 55% in size
Outline: as §2

[13] = qHTS of pediatric cancer cell lines to identify multiple opportunities for drug repurposing: Confirmatory screen for LAN-5 cells (AID 1347113); further: nearly all actives have a fitted effect of over 65% in size
Outline: as §2

[14] = qHTS of pediatric cancer cell lines to identify multiple opportunities for drug repurposing: Confirmatory screen for DAOY cells (AID 1347114); further: nearly all actives have a fitted effect of over 65% in size
Outline: (§4)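 Viability measured as metabolically active cells via CellTiter-Glo luminescence following 48 hours of compound exposure, 11-point dilutions in confirmatory testing. 500-1,000 cells/well plated 5 hours before dosing; controls were DMSO and 2.3 µM bortezomib.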

[15] = qHTS of pediatric cancer cell lines to identify multiple opportunities for drug repurposing: Confirmatory screen for NB-EBc1 cells (AID 1347115); settings: NB-EBc1 neuroblastoma cells, viability (cytotoxicity); activity change, negative = cytotoxic: at 45.9 µM (top of the series);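 further: cells exposed to compound for 48 h before the viability read; nearly all actives have a fitted effect of over 45% in size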
Outline: as §2

[16] = qHTS of pediatric cancer cell lines to identify multiple opportunities for drug repurposing: Confirmatory screen for SJ-GBM2 cells (AID 1347116); further: nearly all actives have a fitted effect of over 60% in size
Outline: as §4

[17] = qHTS of pediatric cancer cell lines to identify multiple opportunities for drug repurposing: Confirmatory screen for Rh30 cells (AID 1347126); further: nearly all actives have a fitted effect of over 55% in size
Outline: as §2

[18] = qHTS to identify inhibitors of the type 1 interferon - major histocompatibility complex class I in skeletal muscle: primary screen against the NCATS Mechanism Interrogation Plate v5.0 (MIPE) Libary (AID 1347411); settings: iHSKM cells + IFN-b, HiBiT-tagged MHC-I luminescence, 24 h; activity change, negative = inhibition: at 45.8 µM (top of the series); further: nearly all actives have a fitted effect of over 65% in size
Outline: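 Luminescence from CRISPR HiBit-tagged endogenous HLA-B in human myoblasts reported MHC class I level after 24 h of IFN-beta (4 ng/ml) plus compound. Compounds ran as 11-point 1:3 series, top 46 uM final.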

[19] = Primary qHTS for small molecule stabilizers of the endoplasmic reticulum resident proteome: Secreted ER Calcium Modulated Protein (SERCaMP) assay (AID 1508630); settings: SH-SY5Y GLuc-SERCaMP (Gaussia luciferase released on ER calcium loss) secretion, thapsigargin, luminescence; activity change, negative = inhibition: at 38.4 µM (top of the series) unless noted
Outline: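 The SH-SY5Y reporter protocol was run at 3 concentrations up to 38.3 uM (primary) or 11 concentrations (follow-up): 16 h compound, 100 nM thapsigargin for 4 h, then extracellular luciferase luminescence.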

[20] = target: Phospholipid hydroperoxide glutathione peroxidase GPX4 (Homo sapiens) (UniProt P36969); experiment: Primary qHTS Assay for Inhibitors of Recombinant Selenoprotein Glutathione Peroxidase 4 (GPX4) (AID 1845192); further: nearly all actives have a fitted effect of over 65% in size
UniProt P36969, sequence (P36969 whole entry, looked up): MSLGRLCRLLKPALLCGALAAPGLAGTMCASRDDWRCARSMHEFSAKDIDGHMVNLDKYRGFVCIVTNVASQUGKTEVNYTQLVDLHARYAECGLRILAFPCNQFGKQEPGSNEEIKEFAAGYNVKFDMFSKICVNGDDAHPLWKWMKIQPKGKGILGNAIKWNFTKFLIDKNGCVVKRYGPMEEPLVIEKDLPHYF
Outline: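 Steps: GPX4 plus compound, 30 min RT; add GR/GSH/NADPH master mix; start with cumene hydroperoxide; read 340/450 nm fluorescence at 0 and 15 min. Finals were 200 nM GPX4, 1 mM GSH, 0.5 mM CHP, 0.5 mM NADPH, 100 nM GR.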

[21] = Quantitative High-Throughput drug screen in 47 multiple myeloma cell lines against the NCATS MIPE library collection: FR4_PLB cell viability assay (AID 1918924; further: nearly all actives have a fitted effect of over 35% in size)
Outline: (§5)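 We plated 500 myeloma cells per well, pinned in MIPE 4.0 compounds, and incubated for 48 hours at 37C. ATP was then quantified with CellTiter-Glo, with DMSO and media-only wells defining 100% and 0%.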

[22] = Quantitative High-Throughput drug screen in 47 multiple myeloma cell lines against the NCATS MIPE library collection: Delta47_JCRB cell viability assay (AID 1918925; further: nearly all actives have a fitted effect of over 45% in size); settings: Delta47 myeloma viability, CellTiter-Glo ATP, 48 h; viability (% of DMSO): at 45.8 µM (top of the series)
Outline: (§6)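 Inhibition of cell viability is measured here. Each line was plated at 500 cells per well, treated with MIPE 4.0 drugs, kept 48 hours at 37C, then assayed for ATP content by CellTiter-Glo luminescence.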

[23] = Quantitative High-Throughput drug screen in 47 multiple myeloma cell lines against the NCATS MIPE library collection: ARP1_JJKsccF8 cell viability assay (AID 1918928; further: nearly all actives have a fitted effect of over 40% in size)
Outline: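 CellTiter-Glo luminescence after 48 h exposure gives viability, scaled between DMSO-only (100%) and media-only (0%) controls. Library compounds are pinned onto 500 myeloma cells per well, incubated at 37C with 5% CO2.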

[24] = Quantitative High-Throughput drug screen in 47 multiple myeloma cell lines against the NCATS MIPE library collection: ARD_JJKsccE7 cell viability assay (AID 1918929); settings: ARD myeloma cell line viability, CellTiter-Glo, 48 h; viability: at 45.8 µM (top of the series)
Outline: as §6

[25] = Quantitative High-Throughput drug screen in 47 multiple myeloma cell lines against the NCATS MIPE library collection: Karpas417_ECACC cell viability assay (AID 1918961); settings: Karpas417 myeloma viability, CellTiter-Glo ATP luminescence, 48 h; viability (% of DMSO): at 45.8 µM (top of the series)
Outline: (§7)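 Viability readout: CellTiter-Glo luminescence following 5 min room-temperature incubation with reagent. Prior exposure: 48 h, 37C, humidified 5% CO2, 500 cells per well.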

[26] = Quantitative High-Throughput drug screen in 47 multiple myeloma cell lines against the NCATS MIPE library collection: KHM11_PLB cell viability assay (AID 1918962); settings: KHM11 myeloma cell viability, CellTiter-Glo ATP luminescence, 48 h; series mostly up to 45.8 µM; further: nearly all actives have a fitted effect of over 35% in size
Outline: as §5

[27] = Quantitative High-Throughput drug screen in 47 multiple myeloma cell lines against the NCATS MIPE library collection: JIM1_ECACC cell viability assay (AID 1918964)
Outline: as §6

[28] = Quantitative High-Throughput drug screen in 47 multiple myeloma cell lines against the NCATS MIPE library collection: INA6_PLB cell viability assay (AID 1918965; further: nearly all actives have a fitted effect of over 55% in size); settings: INA6 myeloma viability, CellTiter-Glo ATP luminescence, 48 h; series mostly up to 45.8 µM
Outline: as §7

Measured: Potency
Potency means the concentration at half of the fitted maximal effect; tags describe the fitted curve by direction and shape.

CNC(=O)Nc1ccc(-c2nc(N3CC4CCC(C3)O4)c3cnn(C4CCC5(CC4)OCCO5)c3n2)cc1
inconclusive: [4] 93.5 nM [cytotoxic, full curve] | [5] 171 nM [cytotoxic, full curve] | [6] 9.7 nM [cytotoxic, full curve] | [8] 37.2 nM [cytotoxic, full curve] | [11] 4650 nM [cytotoxic, partial curve] | [12] 261 nM [cytotoxic, full curve] | [14] 2930 nM [cytotoxic, full curve] | [15] 928 nM [cytotoxic, full curve] | [18] 82.9 nM [inhibitor, full curve] | [19] 335 nM [inhibitor, full curve, poor fit] | [20] 20200 nM [inhibitor, single point] | [21] 6.6 nM [cytotoxic, full curve] | [22] 26.4 nM [cytotoxic, full curve] | [23] 18.7 nM [cytotoxic, full curve] | [24] 372 nM [cytotoxic, full curve] | [26] 3.3 nM [cytotoxic, full curve] | [27] 187 nM [cytotoxic, full curve]
active: [1] 16600 nM | [2] 2.6 nM | [3] 30.6 nM | [7] 52.6 nM | [9] 11800 nM | [10] 41.8 nM | [13] 585 nM | [16] 1040 nM | [17] 329 nM | [25] 6.6 nM | [28] 41.8 nM
